From PubChem BioAssay AID686978 (National Center for Advancing Translational Sciences (NCATS), 2013)
Screen size: about 420,000 compounds; about 64,000 (15%) were called active. The shares of active, inactive and inconclusive entries below differ from those in the screen. Calls follow the shape of the dose curve; as a rule, active = well fitted inhibition curve with a large enough effect; inconclusive = small, poorly fitted or top-dose-only effect; inactive = flat fitted curve, though single readings scatter. No potency is given beside an inconclusive call; the fits are too rough.

Experiment: qHTS for Inhibitors of human tyrosyl-DNA phosphodiesterase 1 (TDP1): qHTS in cells in absence of CPT; also: nearly all actives have a fitted effect of over 55% in size
Conditions: DT40 Tdp1-/- hTDP1 cells, no CPT, ATP luminescence, 48 h; activity change, negative = growth inhibition: at 46.2 µM (top of the series)
In short: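 Cells were dispensed at 400 per well, compounds added by pin tool, plates incubated ≥48 hr at 37 °C, then CellTiter-Glo added for 30 min at room temperature before luminescence reading. Line: DT40 Tdp1-/- complemented with hTDP1; camptothecin omitted.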
% is scaled to controls: 0 for no effect and ±100 for the full control effect; potency is read from the fitted curve at half-maximal effect; tags tell the direction and shape of the fitted curve.

Row | Structure (SMILES) | Potency | activity change, negative = growth inhibition
1 | O=C(C1CCCN(S(=O)(=O)c2ccccc2[N+](=O)[O-])C1)N1CCN(c2ccccc2)CC1 (stereo not drawn) | inconclusive [inhibitor, partial curve, poor fit] | –
2 | Cc1ccc2ccc3cccnc3c2n1 | active: 1.03 µM | –
3 | C=C[C@@]1(C)CC(=O)[C@@]2(O)[C@@]3(C)[C@@H](O)CCC(C)(C)[C@@H]3[C@H](O)[C@H](OC(C)=O)[C@@]2(C)O1 | inconclusive [inhibitor, single point] | –
4 | Cc1cc(O)c(CN2CCN(S(=O)(=O)c3cccs3)CC2)cc1C(C)C | inconclusive [inhibitor, partial curve] | –
5 | CNC(=O)c1ccc(-c2ccc(Cl)c(Cl)c2)s1 | inconclusive [inhibitor, single point] | –
6 | Cc1ccc(CNS(=O)(=O)c2c(C(=O)N3CCCCC3)c(C)n(C)c2C)cc1 | – | inactive: 14.6%
7 | O=C(Cc1ccccc1[N+](=O)[O-])Nc1nccs1 | inconclusive [inhibitor, single point] | –
8 | CCN(CC)c1ccc(C(=O)N2CCc3c([nH]c4ccccc34)C2c2ccc(F)cc2)cc1 (stereo not drawn) | inconclusive [inhibitor, partial curve, poor fit] | –
9 | Cc1ccc(N2C=Nc3ccc(C)c4nc(C)cc2c34)cc1 | inconclusive [inhibitor, partial curve, poor fit] | –
10 | COc1ccc(-c2[nH]ncc2/C=N\NC(=O)c2ccc(Br)o2)cc1OC | – | inactive: -21.8%
11 | CC(=O)c1cccc(NC(=O)c2nc(-c3ccccc3)oc2C)c1 | active: 14.6 µM | –
12 | Cc1csc(NC(=O)c2cc([N+](=O)[O-])cc([N+](=O)[O-])c2)n1 | active: 23.1 µM | –
13 | CNc1nc(-c2ccccc2)[n+](-c2ccc(C)cc2)s1 | active: 5.17 µM | –
14 | CCCCOC(=O)c1ccc(NC(=O)CSC2=Nc3ccccc3C3CC=NN23)cc1 (stereo not drawn) | inconclusive [inhibitor, single point] | –
15 | CCOC(=O)C1(Cc2cccc(Cl)c2)CCCN(CCO)C1 (stereo not drawn) | – | inactive: -22.4%
16 | O=C(CCc1nc2sc3c(c2c(=O)[nH]1)CCCC3)NCCOc1ccccc1 | inconclusive [inhibitor, single point] | –
17 | Cc1ccc2occ(CN3CCOc4ccc(C(C)(O)COc5ccccc5)cc4C3)c(=O)c2c1 (stereo not drawn) | inconclusive [inhibitor, single point] | –
18 | CC(C)(C)C1CCCCC1NC(=O)c1ccncc1 (stereo not drawn) | – | inconclusive: -27% [inhibitor]
19 | COc1ccc(-c2c(-c3ccsc3)oc(=O)c3cc(OC)c(OC)cc23)cc1 | inconclusive [inhibitor, partial curve, poor fit] | –
20 | Cc1cc(C(=O)NC(=S)Nc2ccccc2N2CCCC2)ccc1[N+](=O)[O-] | – | inactive: -29.1%
21 | Cc1c(=O)n(OCc2ccccc2F)c2ccccc2[n+]1[O-] | inconclusive [inhibitor, partial curve] | –
22 | CN(C(=O)c1cccc(NC(=O)Cc2cccc([N+](=O)[O-])c2)c1)C1CCC1 | inconclusive [inhibitor, single point] | –

Row | Structure (SMILES) | Potency | activity change, negative = growth inhibition
23 | c1csc(-c2nc3nc4ccccc4nc3n2Cc2ccc3c(c2)OCO3)c1 | inconclusive [inhibitor, single point] | –
24 | COc1ccccc1C1CC(c2ccc(NS(C)(=O)=O)cc2)=NN1C(=O)c1ccccc1 (stereo not drawn) | inconclusive [inhibitor, single point] | –
25 | CC1=C(C(=O)N(C)C)CC(CC(=O)NC(c2ccccc2)c2ccccc2)C(=O)N1CCC1=CCCCC1 (stereo not drawn) | active: 20.6 µM | –
26 | O=S(=O)(Nc1ccccn1)c1ccc(Oc2ccccc2)cc1 | inconclusive [inhibitor, single point] | –
27 | NC(=S)NN=Cc1cc(-c2cccc(N)c2)ccn1 | active: 4.11 µM | –
28 | CCC(Oc1nc2ccccc2nc1-c1ccccc1NC(C)=O)C(=O)c1ccccc1 (stereo not drawn) | inconclusive [inhibitor, single point] | –
29 | Cc1ccc(C)n1-c1ccc(N2CCOCC2)nc1 | inconclusive [inhibitor, partial curve] | –
30 | COC(=O)c1ccc(OCC(=O)Nc2ccccc2C(=O)NC2CC2)cc1 | inconclusive [inhibitor, full curve, poor fit] | –
31 | CCOc1ccc(NC(=O)Nc2nnc(N3CCCCC3C)s2)cc1 (stereo not drawn) | active: 23.1 µM | –
32 | CCOC(=O)c1sc2ccccc2c1S(=O)(=O)Nc1ccc(OC)c(Cl)c1 | – | inactive: -29.2%
33 | COc1cccc(/C=N/NC(=O)c2ccncc2)c1OC(=O)c1ccc(Br)cc1 | inconclusive [inhibitor, single point] | –
34 | CCOC(=O)N1CCN(C(=O)C2CCN(S(=O)(=O)c3cc(Cl)ccc3OCC)CC2)CC1 | – | inactive: -13.3%
35 | O=S(=O)(NC1CCN(Cc2ccccc2)CC1)c1ccc2ccccc2c1 | inconclusive [inhibitor, single point] | –
36 | COc1ccc(-c2ccc(C)cc2)cc1[C@H]1[C@@H]2C=CCC[C@@]2(C)C(=O)N1Cc1ccccc1 | inconclusive [inhibitor, single point] | –
37 | CN(c1ccc(F)cc1)S(=O)(=O)c1ccc(Cl)c(C(=O)NC2(C)CCS(=O)(=O)C2)c1 (stereo not drawn) | inconclusive [inhibitor, single point] | –
38 | Cc1ccc(NC(=O)Nc2nnc(SCC(=O)N(C(C)C)C(C)C)s2)cc1 | active: 16.4 µM | –
39 | COc1ccc(C(CNC(=O)COc2ccccc2OC)N2CCCCC2)cc1 (stereo not drawn) | – | inconclusive: -0.641% [inhibitor]
40 | CCc1ccccc1NC(=O)CN(C)C(=O)CSc1nnc(Nc2cccc(C)c2)s1 | inconclusive [inhibitor, single point] | –
41 | COc1ccc(-c2nc(NC(C)=O)sc2-c2ccc(OC)cc2)cc1 | – | inactive: -27.4%
42 | Cc1ccc(S(=O)(=O)Nc2cccc(C(=O)NCC(c3ccc(F)cc3)N3CCOCC3)c2)cc1 (stereo not drawn) | inconclusive [inhibitor, single point] | –
43 | COc1ccc(-c2cc(C(=O)N3CCN(C(c4ccccc4)c4ccccc4)CC3)no2)cc1 | inconclusive [inhibitor, single point] | –
